# Results reported in PubChem BioAssay AID488969 (Vanderbilt High Throughput Screening Facility, 2010).
# Over roughly 110,000 compounds, “z-score” has its median near -0.1; the highest 2% begin near 2. The list shows a part of the results.
# Target: Metabotropic glutamate receptor 8 (Rattus norvegicus) (UniProt P70579)
# Experiment: mGluR8 Gi/Go-coupled signaling modulation – cell-based, rat, thallium flux, HTS, primary screen (AID 488969)
# Settings: HEK293 rat mGluR8, GIRK (G protein-gated inwardly rectifying potassium channel) thallium flux, FluoZin2; at 10 µM; stronger effect = higher value; submaximal glutamate (EC20) added with thallium
# UniProt P70579, sequence (P70579 whole entry, looked up): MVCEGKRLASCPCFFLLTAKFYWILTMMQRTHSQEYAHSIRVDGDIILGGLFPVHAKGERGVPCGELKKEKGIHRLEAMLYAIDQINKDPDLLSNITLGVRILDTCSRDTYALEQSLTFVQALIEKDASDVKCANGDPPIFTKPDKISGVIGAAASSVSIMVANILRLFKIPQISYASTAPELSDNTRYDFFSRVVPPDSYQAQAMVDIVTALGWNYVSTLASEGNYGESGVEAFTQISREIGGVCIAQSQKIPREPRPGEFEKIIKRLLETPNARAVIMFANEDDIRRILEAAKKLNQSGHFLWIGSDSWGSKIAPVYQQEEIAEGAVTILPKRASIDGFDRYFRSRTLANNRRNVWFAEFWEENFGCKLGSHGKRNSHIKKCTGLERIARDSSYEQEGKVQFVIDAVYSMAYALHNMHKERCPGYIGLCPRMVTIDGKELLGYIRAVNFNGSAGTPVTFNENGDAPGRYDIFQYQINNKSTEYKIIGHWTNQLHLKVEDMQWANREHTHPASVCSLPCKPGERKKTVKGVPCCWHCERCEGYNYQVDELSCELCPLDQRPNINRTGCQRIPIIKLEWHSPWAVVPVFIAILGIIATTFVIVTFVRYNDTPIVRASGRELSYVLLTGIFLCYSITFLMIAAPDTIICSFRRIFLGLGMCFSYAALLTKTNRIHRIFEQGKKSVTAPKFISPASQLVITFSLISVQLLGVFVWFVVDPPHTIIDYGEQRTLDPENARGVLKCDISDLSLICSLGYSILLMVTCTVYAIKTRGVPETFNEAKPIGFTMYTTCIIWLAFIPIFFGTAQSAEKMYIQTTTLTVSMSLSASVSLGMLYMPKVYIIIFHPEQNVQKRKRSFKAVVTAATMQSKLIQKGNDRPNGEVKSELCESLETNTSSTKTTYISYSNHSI
row,Compound,z-score
1,C#CC(=O)N(c1ccc(OC)c(OC)c1)C(C(=O)NC1CCCC1)c1cccs1 (stereo unspecified),-0.127
2,COc1ccc(CN2CN(c3ccc(Cl)cc3)C(=O)N(n3cnnc3)C2)cc1,0.169
3,Cc1ncoc1C(=O)Nc1ccccc1C(N)=O,0.25
4,COc1ccc(OC)c(NS(=O)(=O)c2ccc(Cl)nc2)c1,-0.0503
5,O=C(COC(=O)c1ccc(Cl)nc1)NCc1ccc2c(c1)OCO2,-0.251
6,CCOC(=O)C1(C)/C(=N/Nc2ccccc2Cl)C(=O)C(=O)N1c1ccccc1 (stereo unspecified),-0.24
7,Brc1ccc(-c2csc(-c3ccncc3)n2)cc1,0.161
8,CCOC(=O)c1nnn(-c2nonc2N)c1CN1CCc2ccccc2C1,0.134
9,Cc1cccc(NC(=O)CCCCCN2C(=O)c3ccccc3C2=O)n1,-0.261
10,Cc1nnc(NC(=O)Cc2ccc(OCc3c(C)noc3C)cc2)s1,-0.554
11,Cn1c(C(=O)NCCCN2CCN(c3ccccc3F)CC2)cc2c(=O)[nH]c3ccccc3c21,-0.0771
12,CCCc1cc(=O)n2[nH]cnc2n1,-0.0837
13,O=C(CSc1nc2ccc(S(=O)(=O)N3CCOCC3)cc2[nH]1)N1CCOCC1,0.333
14,CCCC(=O)c1cn(CC(=O)OC)c2ccccc12,-0.272
15,CN1C(=O)c2ccc(C(=O)NCc3ccccc3)cc2C1=O,0.0203
16,COc1ccc(C2CC(c3ccc(F)cc3)Nc3nc(N)nn32)cc1OC (stereo unspecified),-0.125
17,Cn1nc(C(F)(F)F)c(C(=O)Nc2ccc(F)cc2F)c1Sc1ccc(Cl)cc1,-0.294
18,CCOC(=O)c1cnn(-c2ccccc2)c1NC(=O)CSc1nnc(-c2cccs2)n1CC,0.113
19,C=CCN1C(=O)/C(=C2/Sc3ccccc3N2C)SC1=Nc1ccccc1C,-0.792

row,Compound,z-score
1,CCCC(=NCc1ccccc1)C1=C(O)C(C(=O)OC)C(C)(C)CC1=O (stereo unspecified),-0.0583
2,COC(=O)c1ccccc1NC(=S)N(Cc1ccc2c(c1)OCO2)Cc1cc2cc(C)ccc2[nH]c1=O,2.03
3,Cc1ccc(SCc2cc(=O)[nH]c(/N=C(\N)Nc3ccccc3Sc3ccccc3)n2)cc1,-0.2
4,C/C(=N\NC(=O)CC1N=C(Cc2ccccc2)NNC1=O)c1ccc(C)cc1 (stereo unspecified),-0.0833
5,CC(=O)N(Cc1ccc(F)cc1)C1=C(NCCc2ccccc2)C(=O)c2ccccc2C1=O,1.71e-05
6,COC(=O)c1ccccc1NC(=O)c1cnc2sccn2c1=O,-0.174
7,Cn1ncc(Br)c1C(=O)NC12CC3CC(CC(C3)C1)C2,-0.224
8,CCOC(=O)c1cnc2cc(-c3ccc(C)cc3)nn2c1-c1ccccc1,-0.28
9,CCOC(=O)C1CCN(C(=O)CSc2ccc(Cl)cc2)CC1,-0.702
10,CCCNS(=O)(=O)c1ccc(OCC(=O)N2CCOCC2)cc1,0.196
11,COC(=O)CSc1nc(NC(C)C)nc(N2CCOCC2)n1,-0.228
12,O=C1OCCC1Sc1nnc(-c2ccco2)o1 (stereo unspecified),-0.349
13,COc1cccc(OC)c1C(=O)n1nc(C)cc1C,-0.189
14,O=C(COC(=O)C1(c2ccc(Cl)cc2)CCCC1)Nc1ncc(C(F)(F)F)cc1Cl,-0.527
15,CCCCNC(=O)CC1N=C2c3ccccc3N=C(SCC(=O)Nc3cccc(OC)c3)N2C1=O (stereo unspecified),-0.275
16,CCOC(=O)c1ccc(NS(C)(=O)=O)cc1,-0.435
17,Cc1cc(NC(=O)CSc2nnc(COc3ccccc3)n2Cc2ccco2)no1,-0.458
18,CCCCCCC1CC(C)(/C(C)=N/NC(N)=O)OC1=O (stereo unspecified),0.0111
19,Cc1ccc(C(=O)NCCCC(=O)O)o1,1.06

row,Compound,z-score
1,COc1ccc(C2N(C(=O)N3CCOCC3)CCN2S(=O)(=O)c2ccc(C)cc2)cc1 (stereo unspecified),-0.384
2,O=C(c1ccco1)N(Cc1cccs1)C1CCS(=O)(=O)C1 (stereo unspecified),0.56
3,COc1ccc(Br)cc1S(=O)(=O)N1CCCC1,-0.0684
4,O=C(COc1ccccc1)NC(=S)Nc1cccc(NC(=O)c2ccccc2Cl)c1,-0.164
5,Cc1ccc(Cn2ccc(NC(=O)c3cc(-c4cccc(Cl)c4)on3)n2)cc1,0.187
6,COc1ccc(OCC(=O)NNC(=O)c2cc3ccccc3o2)cc1,1.23
7,CCOC(=O)c1c(-c2ccc(C)o2)csc1NC(=O)CSc1ncn[nH]1,-0.179
8,Cc1ccc(CN2C(=O)/C(=C\c3ccc(C(=O)NCc4cccnc4)cc3)Oc3ccccc32)cc1,-0.188
9,COc1cc(C(=O)Nc2cccc(-c3nc4cc(C)cc(C)c4o3)c2)cc(OC)c1OC,-0.408
10,CCCCOC(=O)Nc1nnc(CC)s1,0.304
11,CC(NC(=O)C12CC3CC(CC(C3)C1)C2)c1ccc2c(c1)OCCO2 (stereo unspecified),-0.46
12,Clc1ccsc1-c1csc(-c2cccnc2)n1,-0.284
13,Nc1ccccc1S(=O)(=O)c1ccccc1N,0.302
14,O=C(NCc1ccco1)C12CC3CC(CC(C3)C1)C2,0.135
15,CC(=O)Oc1ccc(C(=O)Nc2nccs2)cc1,-0.419
16,Cc1ccc2nc(SC(C)C(=O)Nc3cccc([N+](=O)[O-])c3)[nH]c2c1 (stereo unspecified),-0.0685
17,CCCCOc1ccc(C(NC(=O)OCC)NC(=O)OCC)cc1,0.387
18,Cc1cc(=O)[nH]c(N/N=C/c2ccc(OC(=O)c3ccco3)cc2)n1,0.159
